# Laboratory results from article PMC12136788.
# The list shows a part of the results.
# B1: 33127454_33129492_512_CDS_ENSG00000176102_ENST00000323959|human|control|control (ssRNA)
# RNA: GGGAGUUCUACAGUCCGACGAUCCACCCAAAUCUGAUAGGACAUAAUUUCCAUUCCAAUUUUAUCCAGUGCAAAGUCAUAUGCUUGAGCCAUUUUUUCUUUGUAACUUGGUAGUUUACCCUUGGUUUCUCGGACAUAUGAAAGCAACAGAGGAUUGAGCAUCA
# B2: chr9:103913939:103913940:+_ENSMUSG00000032558_ENSMUST00000035167|mus_mus|FALSE|FALSE (ssRNA)
# RNA: GGGAGUUCUACAGUCCGACGAUCAAAAUAAACAGCGAGGAAGAAAUAUCCCAUUGUCUCGCACAUUCUUUUAAGUUUAGGUGAAUGGUCCUUAAGGAACAGUUCCAUUUCGGGCUGUGUUUCAUCUGUGUAGAUGAGGUAGCACAACAGAGGAUUGAGCAUCA
# B3: 65898798_65898918_1790_3pUTR_ENSG00000213625_ENST00000371065|human|control|control (ssRNA)
# RNA: GGGAGUUCUACAGUCCGACGAUCUUCGGGAAGAAGCCAGAGCCGUAGAGAAGUCAGGGCAAACCAGAACUGUUGAGGAGUAGGGGUGGGGGGCAGAGGGAAGGAGCUGGGGAGAAGUGCCAGAUCAUAAAGGAAAUGUAAAAGCAACAGAGGAUUGAGCAUCA
# B4: chr14:76904430:76904431:+_ENSMUSG00000022010_ENSMUST00000022587|mus_mus|mus_mus_mus_hu_True|48_108 (ssRNA)
# RNA: GGGAGUUCUACAGUCCGACGAUCUGCUGGAAAAAAAACCCUCGUGGAAAAAAAGAGGGAACACCAGCAGCCUUGUAUAAGCUAGAUAAAACCGCCUGGCUUUCCGCAGCCCAGGGAGAAACAGAAAACGGCAGCCCUAAUUUACAACAGAGGAUUGAGCAUCA
# B5: chr14:102349618:102349619:+_ENSG00000078304_ENST00000445439|hu_hu|FALSE|FALSE (ssRNA)
# RNA: GGGAGUUCUACAGUCCGACGAUCUACAAACUUCUGAUCAAUAUAUUUCUUCGCUAUAUUAGGUUGGAAAUCUGGAGACUCUAAAAAUCUUAAGAAAAAUUCAUAAACAAGCUGUAGAUGAGGCCAGGCUGCUUCUAACGUUGGCAACAGAGGAUUGAGCAUCA
# B6: chr3:142455598:142455599:-_ENSMUSG00000004591_ENSMUST00000043812|mus_hu|FALSE|FALSE (ssRNA)
# RNA: GGGAGUUCUACAGUCCGACGAUCAAAAUAUUUCAUCAAAUUAUUUUUGAGACUUUUGAGGUACAGCUUUAGUGUUAUAAUUCAUUUUUUAAUAAAAUAUAGACUGUUUUAUCAAAAAUAUUUAUACAUUCUGUUACAAUAUAUCAACAGAGGAUUGAGCAUCA
# B7: 156911750_156912570_4337_CDS_ENSG00000132694_ENST00000368194|human|control|control (ssRNA)
# RNA: GGGAGUUCUACAGUCCGACGAUCCCGCACGGCCUCUUCUAAGAGCUCCAUCCAUGUGUUCUUGUCUGAUGACGUCAAUGCAACCAGCUCAUAGAUCUGGGGUGGGCCCAGCUUGGAGGUGCAGAUGAUGAAGAAGGCCCGUUUCAACAGAGGAUUGAGCAUCA
# B8: chr17:64801638:64801639:+_ENSG00000154229_ENST00000413366|hu_mus|hu_hu_hu_mus_False|68_88 (ssRNA)
# RNA: GGGAGUUCUACAGUCCGACGAUCUAUAUAUAUAUAUACAUAUGUACACAUAUGUAGUAAAACCCUAAUCUAUCACGUAAAGUAGCCAUUCAUUUUUAAAAUUACAUCUACAUUAAAAAAUUAAUAUAUCUGAUAGAGUGCCAGCAACAGAGGAUUGAGCAUCA
# B9: chr22:19452774:19452775:-_ENSG00000070010_ENST00000399523|hu_hu|hu_hu_hu_mus_False|48_58 (ssRNA)
# RNA: GGGAGUUCUACAGUCCGACGAUCCUUCUCAUUGUAGUUGAUAGCAAUCACAUCUCCAGUCGUCAGACAGGCGAAGUUCCUAAGUGCGUUUUCUAAUACCGCUUUAGGGUUGGUAAUAUCCAGGAAGUCUGGGCUCUGAGGCUGCAACAGAGGAUUGAGCAUCA
# B10: chr7:135612270:135612271:-_ENSG00000105887_ENST00000393085|hu_mus|hu_hu_hu_mus_False|48_88 (ssRNA)
# RNA: GGGAGUUCUACAGUCCGACGAUCGUUUUUUUCUGAGAUGUUAAAUAUUCAGUGGAGGGAAAACAAAACUUAACCUUUUAUUAAUGCAUGUAGUACCAAAAGCAGACAUUUUAGCUUCAUUUAUUCAAAAAUAUUAACAUUAAGCAACAGAGGAUUGAGCAUCA
# B11: chr5:132412388:132412389:+_ENSG00000170606_ENST00000304858|hu_hu|motif|central (ssRNA)
# RNA: GGGAGUUCUACAGUCCGACGAUCUUUGGACUUAAUGUCUAGCUUGUAUUUCUUCCCAAAUUCUUCACAGAAGUGAUUUACGGACACUUCAUCAAAUUUUCUACCUCCCAAUGUCGUGUCAAAUGCAGUGGCCAGAACUUUCAGCAACAGAGGAUUGAGCAUCA
# B12: chr19:16212804:16212805:+_ENSG00000167460_ENST00000300933|hu_mus|hu_hu_hu_mus_False|18_18 (ssRNA)
# RNA: GGGAGUUCUACAGUCCGACGAUCAACAAUUCUGGAGUGAAGGAAAGAUGUAACAUGGAACAGCAUUAAAGCUCAGUCAGAAGGCACAUGGGCAACAAUGAUCACCCCAGCAUUCUCCUACGUUGACCUUAAAGACAAUCUGUUCAACAGAGGAUUGAGCAUCA
# B13: chr8:38067834:38067835:+_ENSG00000156735_ENST00000287322|hu_mus|FALSE|FALSE (ssRNA)
# RNA: GGGAGUUCUACAGUCCGACGAUCCUUUGUCAGCAUUUCUUCCAGAAGCCAAUACGCUUUGUCUGUCUUUUUUCCUACAAACUCUUCUACUUCUUGCUCAAGAAACUGCACCUUCUCCAGCACAUGUAUGAUCUUUUUAAUACUCAACAGAGGAUUGAGCAUCA
# B14: chr2:9570881:9570882:+_ENSG00000119203_ENST00000238112|hu_mus|hu_hu_hu_mus_False|88_98 (ssRNA)
# RNA: GGGAGUUCUACAGUCCGACGAUCACUUGUCUUCUGAAGAAACCAGGGCAGAGCUCCACAGUGAUCCAAAUGGAAAUGACUGAUCAACAGAAGGUCGAUCUCAGCUGGGUCGAUAAGGUCAAUGUAAGGAAGGGCAUCCAUUCCCAACAGAGGAUUGAGCAUCA
# B15: chr3:10015032:10015033:+_ENSMUSG00000027533_ENSMUST00000029046|mus_mus|mus_mus_mus_hu_True|1_18 (ssRNA)
# RNA: GGGAGUUCUACAGUCCGACGAUCGUUUUUACCAUCACAAGUGAUGAUACAAUCUGGCUUGGCCAUUGCGCCCAUUUUUCGCAAAGCUAUUCCCACUCCUAGCUCCUUCAUGUAUUCCUCAAAGCCGUUGCUGUCCAUCAGGCGCAACAGAGGAUUGAGCAUCA
# B16: chr3:103732867:103732868:+_ENSMUSG00000044098_ENSMUST00000106806|mus_mus|motif|central (ssRNA)
# RNA: GGGAGUUCUACAGUCCGACGAUCAAAAUUAAAAGCAAAGUAGUCCAAGAAGUCUGGGAGAUAAGCGGCCGCUCCAUGCACGGUUGCGGACGCAUAGUACGCAGCGUUUUUCUCAUUUUCACUGAAUGUCAAAGCAAGAAACUCCAACAGAGGAUUGAGCAUCA
# B17: chr11:119660697:119660698:+_ENSMUSG00000025583_ENSMUST00000147781|mus_hu|FALSE|FALSE (ssRNA)
# RNA: GGGAGUUCUACAGUCCGACGAUCGCUGACGGGAGUGCAGUUAUACGACCUCAUAAUCCUUUCCGCCAAUAAAAAAUUUCGAAACAGACUAGCCACCAGCAAGUCCUGUCUGAAGAGCUUUUGGAAGAGAUCCCGGGGGAGCACCAACAGAGGAUUGAGCAUCA
# B18: chrX:98862621:98862622:+_ENSMUSG00000034160_ENSMUST00000044475|mus_mus|FALSE|FALSE (ssRNA)
# RNA: GGGAGUUCUACAGUCCGACGAUCCUGCAUCUCCUUUAGAGUGUUUCCCAUAUUGGAAUAAGCAUCAGCAAAUGUAGGACUAAUUCGUAUGGCUUCUUUAUAGUGCAUCAGUGCUUCCUGCAGCUUGCCCUGCUGUUGCAGUACCAACAGAGGAUUGAGCAUCA
# B19: 176539478_176539598_3164_CDS_ENSMUSG00000028354_ENSMUST00000030039|mouse|control|control (ssRNA)
# RNA: GGGAGUUCUACAGUCCGACGAUCGGGAGGAGGUAUUCCCACUCCAGGAAGAGGAGGAGGAGGGGGUAUUCCCACUCCAGGAAGAGGAGGAGGAGGGGGUAUGCCCACUCCAGGAAGAGGAGGAGGAGGGGGUAUGCCCACUCCCAACAGAGGAUUGAGCAUCA
# B20: chr7:54168817:54168818:-_ENSMUSG00000014402_ENSMUST00000014546|mus_mus|motif|central (ssRNA)
# RNA: GGGAGUUCUACAGUCCGACGAUCGUUUGAGAUCUUUGUACAUAGCGAUGACAUUGACAGUUUGACGGACGGUUAGAUCUCGGUAUUUGUACUUGGACAUCAUCUUCUUCAGCUGACUCUCGGACACCGCCAUGGCGCGCUCCUCAACAGAGGAUUGAGCAUCA
# B21: chr3:20017139:20017140:+_ENSG00000144566_ENST00000273047|hu_hu|motif|central (ssRNA)
# RNA: GGGAGUUCUACAGUCCGACGAUCGAUAUCAUAUACAACUAUGGCUGCUUGUGCUCCUCUGUAGUACAUUGGUGCGGGGCGGUGGUAUCGUUCUUGACCAGCUGUAUCCCAUAUUUCAAACUUUACUGUAGUGUCAUCAAGACACAACAGAGGAUUGAGCAUCA
# B22: chr4:76721835:76721836:+_ENSG00000138768_ENST00000264904|hu_mus|hu_hu_hu_mus_True|28_78 (ssRNA)
# RNA: GGGAGUUCUACAGUCCGACGAUCGUUUGGCUGGGGUUUCUGAGACGCUCUGGAAUAAACUCAUGUUUUGCUAAUAAAUCCUAGUUUCUCUAUGAAAUUCUCUUUGCAAUCCUCUUCCUCUAUUAGUUGCUUUAGUUUCUCUUUCAACAGAGGAUUGAGCAUCA
# Biological target: T1, UNK ZnF1-3 (human, UniProt Q9C0B0 31-174)
# T1 sequence: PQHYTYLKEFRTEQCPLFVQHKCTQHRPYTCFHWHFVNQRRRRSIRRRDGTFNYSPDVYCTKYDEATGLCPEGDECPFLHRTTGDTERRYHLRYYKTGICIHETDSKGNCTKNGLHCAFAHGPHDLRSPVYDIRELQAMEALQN
# Assay: nsRBNS (natural sequence RNA bind-n-seq); RBNS binding buffer (assumed for nsRBNS): 25 mM Tris pH 7.5, 150 mM KCl, 3 mM MgCl2, 0.01% Triton X-100, 500 ug/ml BSA, 20 U/ml SUPERase-In, 4 C; UNK is unkempt and MSI1 is Musashi-1; names of the RNAs are library labels; protein concentration not given here; high values mean tight binding
row,Binder,binding signal [enrichment R]
1,B1,1.07
2,B2,0.733
3,B3,3.27
4,B4,1.66
5,B5,1.73
6,B6,0.68
7,B7,1.28
8,B8,1.4
9,B9,0.717
10,B10,2.02
11,B11,0.889
12,B12,1.14
13,B13,0.483
14,B14,1.51
15,B15,0.665
16,B16,0.823
17,B17,1.85
18,B18,1.08
19,B19,0.573
20,B20,0.525
21,B21,0.882
22,B22,0.495
